From the supplement of paper PMC3334620
Whole data set: some 33,000 sequences, median “E-score (-0.5 to 0.5)” near -0.043, cut for the highest 2% near 0.37. Some of the results follow.

Target: T1, Upc2 (UniProt Q12151)
T1 sequence: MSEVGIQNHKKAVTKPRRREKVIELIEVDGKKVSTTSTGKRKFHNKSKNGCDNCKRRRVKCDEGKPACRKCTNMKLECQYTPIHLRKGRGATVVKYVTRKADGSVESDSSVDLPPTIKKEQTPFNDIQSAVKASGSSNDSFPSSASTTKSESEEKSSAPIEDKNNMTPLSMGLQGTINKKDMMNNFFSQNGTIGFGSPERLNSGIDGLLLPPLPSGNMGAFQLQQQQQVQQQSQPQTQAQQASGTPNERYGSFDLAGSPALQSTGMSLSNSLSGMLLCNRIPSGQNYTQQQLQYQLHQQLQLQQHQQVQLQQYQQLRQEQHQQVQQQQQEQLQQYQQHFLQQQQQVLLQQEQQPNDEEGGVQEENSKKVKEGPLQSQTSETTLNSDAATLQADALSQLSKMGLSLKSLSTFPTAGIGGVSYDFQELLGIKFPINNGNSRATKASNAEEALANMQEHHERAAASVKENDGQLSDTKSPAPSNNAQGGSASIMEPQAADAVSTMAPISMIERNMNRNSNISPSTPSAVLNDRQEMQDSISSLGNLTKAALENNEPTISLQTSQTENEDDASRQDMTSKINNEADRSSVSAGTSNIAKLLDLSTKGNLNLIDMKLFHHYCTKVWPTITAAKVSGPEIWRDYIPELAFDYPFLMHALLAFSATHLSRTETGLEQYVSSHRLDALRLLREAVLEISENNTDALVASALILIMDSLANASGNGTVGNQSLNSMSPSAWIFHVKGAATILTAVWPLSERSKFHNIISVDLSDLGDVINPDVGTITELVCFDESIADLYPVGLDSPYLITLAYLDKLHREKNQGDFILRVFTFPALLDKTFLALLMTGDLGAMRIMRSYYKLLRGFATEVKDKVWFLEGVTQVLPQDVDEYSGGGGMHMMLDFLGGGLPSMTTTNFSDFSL
Test: PBM E-score (8-mer binding enrichment) (E-score (-0.5 to 0.5)); higher = stronger / more preferred TF binding; most listed sequences are background and not binding sites
Conditions: protein concentration: 200 nM; construct: GST-full length
Outline: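 Each ungapped eight-base word and its reverse complement, pooled, received an E-score from the Universal PBM Analysis Suite. Underlying scans, normalised with masliner, recorded fluorescent anti-GST bound to GST-tagged yeast transcription factors. These were applied at about 100-200 nM to universal all-10-mer Agilent arrays double-stranded by primer extension.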

Row | Sequence | PBM E-score
1 | GTGCTGAA | 0.0654
2 | GTCCCGAC | 0.00352
3 | ACCGACGA | 0.171
4 | CTATCCTC | 0.0494
5 | ATATCGGC | 0.0158
6 | TACCAGTA | 0.0883
7 | GGAAGTAC | -0.149
8 | ACCGCGGT | 0.0762
9 | CCCTTCCG | -0.264
10 | ATATATCC | 0.0459
11 | AGGTAGAT | -0.0192
12 | CATTAGGA | -0.088
13 | GGGTGGAA | -0.243
14 | GGTCGTAC | 0.462
15 | GAAGACTC | -0.119
16 | TATTAAAA | 0.117
17 | ACTGTTAA | 0.0793
18 | CTCTAGAG | -0.154
19 | AATCTGCG | 0.132
20 | AACAGTAA | -0.0904
21 | ACTAGAGT | -0.203
22 | AAAAAGTA | 0.0865

Row | Sequence | PBM E-score
23 | CCCTTTAC | 0.25
24 | ACAGCTCT | -0.258
25 | ATCGAGGC | -0.0501
26 | ACGCCCGC | 0.0502
27 | AACTTTCG | 0.0942
28 | CAACGATG | 0.0412
29 | GATGACAC | 0.0272
30 | AATGGATA | -0.013
31 | AGGAAAAG | -0.134
32 | GTCTGTCA | 0.0217
33 | CCCTCTGA | -0.159
34 | CATCGTCA | -0.163
35 | GTGGGCCA | -0.0364
36 | GTTCAGCA | 0.171
37 | CACCTGCC | -0.265
38 | AGATGTAT | -0.0123
39 | ACAGAATC | -0.0506
40 | ACCTGGTG | -0.0762
41 | AAAGGAGT | -0.0695
42 | GGTCCAAC | -0.134
43 | AATCGCGG | -0.106
44 | GACTGAAC | 0.0547

Row | Sequence | PBM E-score
45 | CGTCAGGA | -0.0877
46 | GATGTACA | -0.098
47 | TAACTCGA | 0.109
48 | AACTTGTC | -0.0131
49 | CAGTAGCG | 0.0627
50 | CTAGGTAA | -0.158
51 | ACCGCTAG | -0.136
52 | AAACGAGG | 0.481
53 | ACACGTGA | 0.00354
54 | TATATTAA | 0.113
55 | ACTGCGAC | 0.0311
56 | AGTGGTGG | -0.0594
57 | GAGCTGTA | -0.177
58 | CCCTGTTA | -0.0929
59 | GGCGGCAC | -0.0468
60 | CATGTGCG | -0.0691
61 | AAATAAAT | 0.153
62 | CGTCACTC | -0.0671
63 | TCACGCAA | -0.0853
64 | AGGGGCTA | -0.0284
65 | CGTGCCAA | -0.129
66 | ATTGTAAA | 0.124

Row | Sequence | PBM E-score
67 | ATTCAACG | 0.142
68 | ACCTATAC | 0.382
69 | ATGGACTC | -0.0753
70 | TATAGATA | 0.177
71 | CTGGGTCA | -0.239
72 | CTAAACGC | 0.416
73 | GCATGGGC | -0.0794
74 | TACCACCA | -0.12
75 | ATTTCTGA | -0.166
76 | AAGCCCCC | -0.0762
77 | ATACTTAG | -0.0525
78 | GGCCTGCA | -0.162
79 | AGTTTTCG | 0.124
80 | GGGGCAAC | -0.0845
81 | CCCTCATA | -0.217
82 | TGCTCGAA | -0.0598
83 | CCCTAAAC | 0.307
84 | ATAGAATG | -0.0602
85 | CGCGAGCA | 0.0612
86 | GTTTCTGA | 0.0261
